Assay results published in US5455278A (priority 1994, dated 1995).

Experiments:
[1] = test system: L. monocytogenes; test: Effect of oxygen on the inhibitory activity of falcarindiol; details: anaerobic, pH 7.5, 20° C.; versus control
Method: This molecule is not only involved in the survival of food-borne pathogens but can also be transformed to toxic metabolites. To evaluate the influence of oxygen on inhibition by falcarindiol in the carrot extract, L. monocytogenes was grown at pH 7.5 and 20° C. in the presence of the compound under anaerobic and aerobic conditions. […] It should be noted that the aerobic control grew at rate faster than the anaerobic control, thus making the difference in the activity of falcarindiol even more pronounced.

[2] = test system: Listeria monocytogenes cells; test: Transmission electron microscopy of Listeria monocytogenes cells treated with falcarindiol
Source text: The exact mechanism by which falcarindiol inhibits pathogens is not known.

In the case of `C=CC(O)C#CC#CC(O)C=CCCCCCCC` (centres unmarked) [falcarindiol], the “growth rate of L. monocytogenes after the lag phase” value [1] is reported as “grew at a similar rate as the control” and the “effect on L. monocytogenes cells by transmission electron microscopy” value [2] is reported as “affected the cell envelope, causing leakage of intracellular materials”.
